# Reference: the supplement of paper PMC11417369
# ± gives the standard deviation of the averaged measurements. Some of the results follow.
# Tested on: PfAP2-G AP2 domain (GST-tagged)
# Assay: gcPBM binding intensity (ln(normalized median fluorescence intensity)); higher = stronger DNA binding
# Method in brief: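 After 1 h on an Agilent 4 × 180k array of primer-extended double-stranded 36-bp intergenic genomic probes and negative controls, bound GST-tagged P. falciparum DNA-binding domains were detected with Alexa488 anti-GST antibody and scanned at 488 nm. The domains had been expressed in E. coli, and binding took place in 1× PBS with 1% milk, 0.2 mg/ml BSA, 0.5% salmon testes DNA and 0.03% Triton X-100. Binding intensity is the highest Masliner-normalised natural-log median intensity across replicate spots of either probe orientation.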
row,Sequence,gcPBM binding intensity (ln)
1,ATAATATGAAAACACACACACACACTAGAAAAAAAA [CACACA_site5153],10.2 ± 0.35
2,AAAAAAAAAAATATAACACACAACAAAAAAATATAT [CACACA_site1753],9.85 ± 0.099
3,ATTATTTAAATGGATGCACACATGCATTAAATAAAA [CACACA_site5831],9.915 ± 0.078
4,TATTTTAACATTAGGTGTACATACAAAAATAAAAAT [XGTACX_site8577],11.6 ± 0.93
5,AAATTAATATTATGTGCATGCACAAAGAGGAACGAC [TGCATGCA_site754],10.6 ± 0.51
6,TGGTAATTTCTTTGATAAAAATTAATATGTATAAAT [XGTACX_negctrl_site152],9.815 ± 0.064
7,TTTTTCAAATTTAATACACACACAAGTATATATTTA [CACACA_site9307],9.84 ± 0.085
8,TTTTTCTTTTTACATACACACAAAAAAATAAAATAT [CACACA_site581],10.3 ± 0.33
9,AATTGGAAGAAAAAAAAGGAAGGAAAGTTATTACAT [GTGCAC_negctrl_site74],9.61 ± 0.16
10,TATATACATGCATATACACACATATATTTATTTATA [CACACA_site6327],9.93 ± 0.12
11,TTTGTAAAACTATATTGTACTTTTATATATCTACAA [XGTACX_site5507],11.3 ± 0.88
12,ACAACTCGGAAGGTTTGTACTTAAAGTATAATTAAG [XGTACX_site737],11.2 ± 0.54
13,TCATACATGGTGTGTTTGCACTTGACCTATATTCAT,10.18 ± 0.042
14,TCTTGAATAACAAAAAAATGTGCCAACAAAATAAAT [XGTACX_negctrl_site172],10.5 ± 0.33
15,ATAAAAAAATTAAATACATGCACATATACACATACA [TGCATGCA_site129],10.3 ± 0.19
16,GTATATATGTATGTATGTACGTATATAGTTATGTAT [XGTACX_site6769],11.6 ± 0.93
17,TACTGAAATAATTATTTAAACGTTTTTATATGTATT [CACACA_negctrl_site487],9.83 ± 0.042
18,TTTATTTTTTCCAAGTCACACATGTTTTGATATATT [CACACA_site4946],10.06 ± 0.028
19,AGGATACACAGACACACACACATATATATATATATA [CACACA_site907],10.1 ± 0.25

row,Sequence,gcPBM binding intensity (ln)
1,TTTTTTTAAAGACATGCATGTAATATTTAAATCATT [TGCATGCA_site495],9.79 ± 0.028
2,ATTAAAAATATAGTCACACATACACCCATATATATT [CACACA_site5394],10.15 ± 0.099
3,TAAATAGATGTTTTATGTACGTATAAATAAAAAAAA [XGTACX_site3412],11.7 ± 0.88
4,ATAATTTTTTGATTTGCATGTAATAAATATATGATA [TGCATGCA_site384],9.88 ± 0.23
5,AATATATTTTTTCACTGTACTTTTATTATATATACA [XGTACX_site8312],11.5 ± 0.92
6,AAAAAAAATGGATGATCACACACTTCATAAAAATTG [CACACA_site2213],10.04 ± 0.092
7,CACATACAGATATATACACACAAATATATATACTCA [CACACA_site4591],10.1 ± 0.17
8,GATTTTTTTTTGTGGACACACAGAAATAAATTTATA [CACACA_site327],11.4 ± 1
9,ATACAACGATATATATATATACAAATACATATTTAT [CACACA_negctrl_site268],9.85 ± 0.085
10,ATATAGGTATTTAATACACACAAAACTTTCATTCCA [CACACA_site7627],10.1 ± 0.15
11,CATGTGCATATTAAATGTACATATATACATATATAC [XGTACX_site857],10.9 ± 0.58
12,AAGGATGATACAACTTGTACATATTTGCTTAATATA [XGTACX_site764],11.1 ± 0.4
13,ATATAAATATATTGCACACACAATTATTATTATTAT [CACACA_site7147],10 ± 0.23
14,TATAATGTTAAATAATGTACATATTTTTTTTTTTTT [XGTACX_site4721],11.1 ± 0.62
15,ATATAAATCTACACCGCACACAAAAACAACAAATAT [CACACA_site2506],10.3 ± 0.24
16,AAATAAATGAAACACACACACACAAAAAAAAAAAAC [CACACA_site2625],10.2 ± 0.26
17,AAAGCTAATATTATATGTACTTATATATTTATATAT [XGTACX_site4474],11.2 ± 0.79
18,TATATATCAATATGCACACACAAGAAGTAATTATAA [CACACA_site7487],10.04 ± 0.035
19,TAAAAAGTATATAAGAGTACACATATTTATAAATAT [XGTACX_site3084],11.6 ± 0.92

row,Sequence,gcPBM binding intensity (ln)
1,AGACTTTGTACAAACACACACATGAGCACAATATTA [CACACA_site6755],11 ± 0.43
2,ACACAATTGAAATAGTGTACAAAATGTTGTTACATA [XGTACX_site8671],11.1 ± 0.57
3,TTATTAACCAAACGCACATGCAAAATATATTATATA [TGCATGCA_site915],10.1 ± 0.23
4,AAATAAATAATATGTAAACACACAAAAAATAAAAAT [CACACA_site8307],10.1 ± 0.18
5,TTTTTTTTTCGGAAAAGTACAAAACTTTTTTATAAT [XGTACX_site4670],11.3 ± 0.93
6,AACAAATTTTTTTTTCCTTTTTTTTTTTTACTTCAT [CACACA_negctrl_site1214],9.58 ± 0.042
7,ATAAACAAAGTTAAATGTACAAAGGGGTAAAAAAAA [XGTACX_site83],10.7 ± 0.43
8,TTTTTTTTTTTCGGGGGTACTAATATATTATTAATA [XGTACX_site7809],11.5 ± 0.93
9,GTTTTTAAGAAAAACACACACTCCTGTTATTTTATA [CACACA_site3696],9.94 ± 0.071
10,TAATAATTAATTAATATAATATTTTTTCATAATTAT [XGTACX_negctrl_site602],9.85 ± 0.18
11,ATAGAAAAAATATACACACACTTATTAAATAAAAAT [CACACA_site7540],9.99 ± 0.071
12,AACAAAATTGAAGGAACACACATACAGATATATATA [CACACA_site4264],10.1 ± 0.2
13,TGAATTAAGATTTATTGTACATAATTTATACCATAT [XGTACX_site7034],11.1 ± 0.6
14,TAAATTTATAGACACACACACATATAAATAAATATA [CACACA_site6530],10.1 ± 0.25
15,TATATAAATAAATATACACACATATATAAATATACA [CACACA_site2982],9.62 ± 0.11
16,TTTTTTTTTTTTTGCACACTTAAATTTGGAGTGTAG [CACACA_site2345],10.1 ± 0.56
17,TTTAATAATAATACTAGTACACATTCTTTATTATTT [XGTACX_site2671],11.3 ± 0.9
18,ATATAATATATATATTGTACATATATTTATAAGCAT [XGTACX_site3726],10.9 ± 0.65
